Measured values published in PubChem BioAssay AID1508642 (National Center for Advancing Translational Sciences (NCATS), 2021).
Screen size: about 43,000 compounds; about 200 (0.47%) were called active. Inconclusive results, whose numbers are uncertain, are shown with a selection of clear calls. Calls come from the whole dose curve; as a rule, active = well fitted cell-killing curve with a large enough effect; inconclusive = small, poorly fitted or top-dose-only effect, or effect the other way; inactive = flat fitted curve, though single readings scatter. A potency beside an inconclusive call is a rough fit, not a confirmed value.
% is set by controls: 0 for no effect and ±100 for the full control effect; potency is the fitted concentration of half-maximal effect; tags give direction and shape of the fitted curve.

Test: Cell viability qHTS assay in S16 Pmp22-F2sN cells; note: nearly all actives have a fitted effect of over 65% in size
Settings: S16 Pmp22-F2sN Schwann cells (luciferase reporters placed in the Pmp22 gene) viability, CellTiter-Glo, 24 h; activity change, negative = cytotoxicity: at 57.5 µM (top of the series)
Method in brief: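 Rat S16 Schwann reporter line, 24 h treatment with library compounds delivered at 23 nL per well. Cell viability by CellTiter-Glo luminescence.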
With `O=C(Nc1ccc2oc(-c3ccc4ccccc4c3)nc2c1)c1cccc(Cl)c1Cl` the Potency was inconclusive: 39.8 µM [cytotoxic, single point]. With `CSc1ccc(CCNC(=O)CN2C(=O)COc3ccc(S(=O)(=O)N4CCCC4)cc32)cc1` the Potency was inconclusive: 39.8 µM [cytotoxic, single point]. In the case of `CCOc1ccc(C2=C(C(C)=O)Sc3nnc(C)n3N2C(C)=O)cc1`, the Potency is reported as inconclusive: 39.8 µM [cytotoxic, single point]. With `COc1ccc(S(=O)(=O)NCC(c2ccco2)S(=O)(=O)c2cccs2)cc1OC` (stereo not given) the Potency was active: 20 µM. With `COc1cc(C(=O)OCc2cc(=O)n3ccsc3n2)cc(OC)c1OC` the Potency was inconclusive: 6.31 µM [cytotoxic, full curve]. For `CCCCC(=O)Nc1cc(-c2cn3cccnc3n2)ccc1C`, the “activity change, negative = cytotoxicity” value was inactive: 7.94%. For `CCOC(=O)c1cc2c(=O)n3ccccc3nc2n(CC2CCCO2)c1=NC(=O)c1ccc(OCC)cc1` (stereo not given), the “activity change, negative = cytotoxicity” value was inactive: 0.281%. In the case of `Fc1ccc(NCc2nc3ccccc3n2CCOc2ccccc2Cl)cc1`, the Potency is reported as inconclusive: 39.8 µM [cytotoxic, single point]. For `CSc1nc2sc3c(c2c(=O)n1-c1ccc(C)cc1)CCCC3`, the “activity change, negative = cytotoxicity” value was inactive: 20%. For `Cc1cn2c(=O)cc(COC(=O)COc3ccc(F)cc3)nc2s1`, the Potency was inconclusive: 2.82 µM [cytotoxic, single point]. In the case of `CCC(Sc1nc2n[nH]c(C)c2c(=N)n1-c1ccc(Br)cc1)C(=O)N(CC)CC` (stereo not given), the Potency is reported as inconclusive: 28.2 µM [cytotoxic, single point]. With `COc1ccccc1CSc1nc2n(n1)C(c1ccccc1)C(C(=O)Nc1ccc(C)cc1)=C(C)N2` (stereo not given) the Potency was inconclusive: 20 µM [cytotoxic, partial curve]. In the case of `CCN(CC)c1ccc(NC(=O)C2CCCN(S(=O)(=O)c3ccc4c(c3)oc(=O)n4C)C2)c(C)c1` (stereo not given), the Potency is reported as inconclusive: 39.8 µM [cytotoxic, single point]. With `CN1CCN(c2ccc(-c3nc(-c4ccccc4)no3)cc2[N+](=O)[O-])CC1` the Potency was inconclusive: 39.8 µM [cytotoxic, single point]. For `Cc1ccc(-c2onc(C)c2C)cc1S(=O)(=O)N1CCc2ccccc21`, the Potency was inconclusive: 25.1 µM [cytotoxic, single point]. For `CCC1=Nc2cc(C(=O)N3CCC(C)CC3)ccc2Sc2ccc(C)cc21`, the Potency was inconclusive: 15.8 µM [cytotoxic, partial curve, poor fit]. With `Cc1ccc(C)c(NC(=O)C2CCCN2S(=O)(=O)c2ccc3c(c2)CCCC(=O)N3)c1` (stereo not given) the Potency was inconclusive: 22.4 µM [cytotoxic, partial curve, poor fit]. For `CCOC(=O)c1c(NC(=O)COc2ccc(OC)cc2)sc(C(=O)N(CC)CC)c1C`, the Potency was inconclusive: 39.8 µM [cytotoxic, single point]. In the case of `CC(=O)N1c2ccc(S(=O)(=O)N3CCCCCC3)cc2CC1C(=O)NCc1cccc(F)c1` (stereo not given), the Potency is reported as inconclusive: 2.51 µM [cytotoxic, full curve, poor fit]. With `CCOc1ccc(CC(=O)NCCS(=O)(=O)N2CCN(c3ccccc3OC)CC2)cc1` the Potency was inconclusive: 11.2 µM [cytotoxic, partial curve]. With `COc1cc(-c2nc(Cn3nnc(C(=O)Nc4ccccc4C)c3C)c(C)o2)cc(OC)c1OC` the Potency was inconclusive: 25.1 µM [rising, partial curve, poor fit]. In the case of `CCOC(=O)c1cc(-c2ccccc2)n(CCC(=O)Nc2ccc(OC)c(Cl)c2)c1C`, the Potency is reported as inconclusive: 14.1 µM [cytotoxic, partial curve]. With `Cc1ccccc1-c1nc2c(c(SCc3cccc(Cl)c3)n1)Cc1c(CO)cnc(C)c1O2` the Potency was inconclusive: 39.8 µM [cytotoxic, single point]. For `Cc1oc(-c2ccccc2F)nc1CN1CCC(C(=O)NCCc2ccc(Cl)cc2)CC1`, the Potency was inconclusive: 14.1 µM [cytotoxic, partial curve]. In the case of `CCOc1ccccc1NC(=O)c1c(NCc2ccc(C)o2)sc2c1CCCCC2`, the “activity change, negative = cytotoxicity” value is reported as inactive: -19.7%. With `CCOc1ccc(N(CC)C(=O)c2cc3c(=O)oc4ccccc4c3s2)cc1` the Potency was inconclusive: 39.8 µM [rising, single point]. In the case of `CCOC(=O)CNC(c1ccccc1)c1cc(Br)ccc1NC(=O)c1ccc(Cl)cc1` (stereo not given), the Potency is reported as inconclusive: 39.8 µM [cytotoxic, single point]. With `CC(C)(C)NC(=O)Cn1cc(S(=O)(=O)Cc2ccc(F)cc2)c2ccccc21` the Potency was inconclusive: 20 µM [rising, partial curve, poor fit]. In the case of `CCOc1cccc(C(=O)Nc2ccc3oc(-c4ccc(C(C)(C)C)cc4)nc3c2)c1`, the Potency is reported as inconclusive: 0.178 µM [rising, full curve, poor fit]. With `CC(CCO)Nc1nc2c(c(=O)n(C)c(=O)n2C)n1Cc1ccc(Br)cc1` (stereo not given) the Potency was inconclusive: 25.1 µM [cytotoxic, single point]. With `CC(C)CCNC(=O)c1ccc(Cn2c(=O)c3cccn3c3cccnc32)cc1` the “activity change, negative = cytotoxicity” value was inactive: 7.72%. For `Cc1cc(=O)oc2c3c(ccc12)OCN(Cc1ccccc1Cl)C3`, the “activity change, negative = cytotoxicity” value was inactive: 7.75%. For `COc1ccc(C2=CC(c3ccc(N(C)C)cc3)n3nnnc3N2)cc1` (stereo not given), the Potency was inconclusive: 31.6 µM [rising, single point]. In the case of `COc1ccc(S(=O)(=O)NCC(c2cccs2)S(=O)(=O)c2ccc(C)cc2)cc1F` (stereo not given), the Potency is reported as inconclusive: 25.1 µM [cytotoxic, single point]. In the case of `COc1ccc2c(c1)CCc1c(C(=O)Nc3c(C)nn(Cc4ccccc4Cl)c3C)noc1-2`, the Potency is reported as inconclusive: 39.8 µM [cytotoxic, single point]. For `CCCCN(CC)CCCNC(=O)c1cn(CC(C)C)c(=O)c2c1c1ccccc1n2C`, the “activity change, negative = cytotoxicity” value was inactive: -3.13%. With `COCCn1c(CNC(=O)c2cc([N+](=O)[O-])ccc2Cl)nc2cccnc21` the “activity change, negative = cytotoxicity” value was inactive: 11.3%. In the case of `COC(=O)c1cc2sc(C)cc2n1Cc1ccc(F)cc1Cl`, the Potency is reported as inconclusive: 0.0355 µM [rising, full curve, poor fit]. With `O=S(=O)(c1ccc(Cl)cc1)c1nc(-c2ccccc2Br)oc1N1CCOCC1` the Potency was inconclusive: 28.2 µM [cytotoxic, single point]. For `COc1ccccc1CNC(=O)Cn1c(=O)ccc2cc(S(=O)(=O)N3CCC(C)CC3)ccc21`, the “activity change, negative = cytotoxicity” value was inactive: -1.5%.
